Patent publication US20230257469A1 (SINOCELLTECH, published 2023)
Blank lines part the entries; values can stand above or below the binder they belong to.

Assays:
[1] = biological target: T1, recombinant human TGF-β1 protein (human, UniProt P01137 part only); assay: ELISA; TGF-β1 coated at 2 µg/mL, fusion protein titrated
T1 construct: the ELISA and cell assays say only TGF-β1 protein; also called TGF-β1 factor

[2] = biological target: T2, TGF-β3 protein (UniProt P10600 301-412); assay: ELISA; TGF-β3 coated at 2 µg/mL, fusion protein titrated
T2 sequence (looked up): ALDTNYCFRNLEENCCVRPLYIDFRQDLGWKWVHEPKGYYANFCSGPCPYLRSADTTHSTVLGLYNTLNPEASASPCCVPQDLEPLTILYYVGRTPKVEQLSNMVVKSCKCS

[3] = biological target: T3, Recombinant human EGFR-His protein (human, UniProt P00533 part only); assay: BLI (Fortebio OctetRED96e), biotinylated recombinant human EGFR protein, fit over several concentrations
T3 construct: Bought protein; also called recombinant human EGFR protein; human EGFR protein; not shown: His tag

[4] = biological target: T1, recombinant human TGF-β1 protein; assay: BLI (Fortebio OctetRED96e), biotinylated recombinant human TGF-β1 protein, fit over several concentrations
[5] = biological target: T1, recombinant human TGF-β1 protein; assay: ELISA on coated TGF-β1 according to Example 3.4

T1 sequence (P01137 279-390 limits assumed): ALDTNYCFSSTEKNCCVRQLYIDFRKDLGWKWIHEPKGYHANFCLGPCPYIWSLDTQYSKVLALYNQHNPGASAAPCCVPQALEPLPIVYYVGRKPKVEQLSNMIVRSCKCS

B1: EGFR antibody/TGFβR2 fusion protein 6 (ECD delete (6-26)) (other)
heavy: EVQLVQSGAEVKKPGATVKISCKVSGYTFTTYYTHWVKQAPGKGLEWIGWIYPGDVNTKYNEKFKGRVTLTADTSTDTAYMELSSLRSEDTAVYYCAREDPGSNYFDYWGQGTLVTVSS[left out - human IgG1 constant region]GGGSGGGGSGGGGSGGGGSIPPHVLCKFCDVRFSTCDNQKSCMSNCSITSICEKPQEVCVAVWRKNDENITLETVCHDPKLPYHDFILEDAASPKCIMKEKKKPGETFFMCSCSSDECNDNIIFSEEYNTSNPD
light: DIQMTQSPSSLSASVGDRVTITCRASENIYYSLAWYQQKPGKAPQLLIYITDGLADGVPSRFSGSGSGTDYTLKIDSLQPEDFATYYCKQSYDVPLTFGGGTKVEIKRTVAAPSVFIFPPSDEQLKSGTASVVCLLNNFYPREAKVQWKVDNALQSGNSQESVTEQDSKDSTYSLSSTLTLSKADYEKHKVYACEVTHQGLSSPVTKSFNRGEC
notes: Expressed in HEK-293 cells (fut8 knockout)
EC50 [1]: 0.091 nM | EC50 [2]: 0.102 nM | Kd [3]: 0.00877 nM | koff [3]: 1.47e-05 s⁻¹ | kon [3]: 1.68e+06 M⁻¹ s⁻¹ | Kd [4]: 0.0961 nM | koff [4]: 0.000147 s⁻¹ | kon [4]: 1.53e+06 M⁻¹ s⁻¹

B2: EGFR antibody/TGFβR2 fusion protein 1 (full-length TGFβR2 extracellular domain) (other)
heavy: EVQLVQSGAEVKKPGATVKISCKVSGYTFTTYYTHWVKQAPGKGLEWIGWIYPGDVNTKYNEKFKGRVTLTADTSTDTAYMELSSLRSEDTAVYYCAREDPGSNYFDYWGQGTLVTVSS[left out - human IgG1 constant region]GGGSGGGGSGGGGSGGGGSIPPHVQKSVNNDMIVTDNNGAVKFPQLCKFCDVRFSTCDNQKSCMSNCSITSICEKPQEVCVAVWRKNDENITLETVCHDPKLPYHDFILEDAASPKCIMKEKKKPGETFFMCSCSSDECNDNIIFSEEYNTSNPD
light: B1 light
notes: Antibody-receptor fusion: EGFR-HPA8 heavy chain without C-terminal lysine, (G4S)4 linker, TGFβR2 ECD
Kd [4]: 0.173 nM | koff [4]: 0.000251 s⁻¹ | kon [4]: 1.45e+06 M⁻¹ s⁻¹

The remaining lines, values ahead:

binding result [5]: binds
B3: X/TGFβR2 fusion protein 24 (Ramucirumab, full length TGFβR2 ECD) (other)
heavy: EVQLVQSGGGLVKPGGSLRLSCAASGFTFSSYSMNWVRQAPGKGLEWVSSISSSSSYIYYADSVKGRFTISRDNAKNSLYLQMNSLRAEDTAVYYCARVTDAFDIWGQGTMVTVSS[left out - human IgG1 constant region]GGGSGGGGSGGGGSGGGGSIPPHVQKSVNNDMIVTDNNGAVKFPQLCKFCDVRFSTCDNQKSCMSNCSITSICEKPQEVCVAVWRKNDENITLETVCHDPKLPYHDFILEDAASPKCIMKEKKKPGETFFMCSCSSDECNDNIIFSEEYNTSNPD
light: DIQMTQSPSSVSASIGDRVTITCRASQGIDNWLGWYQQKPGKAPKLLIYDASNLDTGVPSRFSGSGSGTYFTLTISSLQAEDFAVYFCQQAKAFPPTFGGGTKVDIKRTVAAPSVFIFPPSDEQLKSGTASVVCLLNNFYPREAKVQWKVDNALQSGNSQESVTEQDSKDSTYSLSSTLTLSKADYEKHKVYACEVTHQGLSSPVTKSFNRGEC
notes: Signal peptide of 19 residues left out; limits counted from the printed segments

binding result [5]: binds
B4: X/TGFβR2 fusion protein 25 (Ramucirumab, ECD delete (6-26)) (other)
heavy: EVQLVQSGGGLVKPGGSLRLSCAASGFTFSSYSMNWVRQAPGKGLEWVSSISSSSSYIYYADSVKGRFTISRDNAKNSLYLQMNSLRAEDTAVYYCARVTDAFDIWGQGTMVTVSS[left out - human IgG1 constant region]GGGSGGGGSGGGGSGGGGSIPPHVLCKFCDVRFSTCDNQKSCMSNCSITSICEKPQEVCVAVWRKNDENITLETVCHDPKLPYHDFILEDAASPKCIMKEKKKPGETFFMCSCSSDECNDNIIFSEEYNTSNPD
light: B3 light
notes: as for B3
